Test results as given in the supplement of paper PMC10126150.
Sequences with one replicate were seen in a single cluster, so their values are uncertain.

system: ATP; test: switch fluorescence ratio, 500 uM ATP over buffer (Cy3 cluster intensity, sum of 5 cycles each) (fold (ratio)); higher = stronger signal-on switching upon ATP binding; sequences stand for … in TCGTCGGCAGCGTCAGATGTGTATAAGAGACAGTTTTTTTTTTTTTTTTTTTTTTTTT…TC; details: aptamer strand: ATP DNA aptamer (quencher-CACCTGGGGGAGTATTGCGGAGGAAGG + anchor), 100 nM annealed; ATP concentration: 500 uM; one replicate
Summary of the method: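 Cy3-labelled switching-strand clusters on a modified Illumina MiSeq flow-cell were annealed to 100 nM quencher-labelled ATP aptamer, imaged in selection buffer, then imaged after 15 min with 500 uM ATP at 22 °C. Five buffer/ATP cycles ran, with NaOH stripping and re-annealing between them. The fluorescence ratio is summed target-cycle over summed buffer-cycle Cy3 intensity per cluster, averaged per switch-domain sequence. Clusters outside 100-1000 RFU were excluded.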
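Note: ATP exposure 15 min at 22 °C before imaging.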

Row | Sequence | switch fluorescence ratio
1 | CTTACCCCTT | 1.06
2 | GCGTGGGCAT | 1
3 | ACTGGACTTT | 1.14
4 | TTGCAACTCA | 1.03
5 | TCATCGGACA | 0.999
6 | ACAGAAGTTT | 1.01
7 | ATGAGTGTTC | 1
8 | GCGGGGACT | 1.02
9 | CTAGTTGATC | 1.09
10 | AAATCATTC | 0.998
11 | TAACTCTC | 0.993
12 | AAAACACGCG | 1.02
13 | GACGTCCTTG | 0.995
14 | AAGTCTTCGG | 0.967
15 | AGTGTCAAAA | 0.989
16 | GGATCAGTCC | 1.03
17 | CCGAAATTGT | 1.2
18 | AGTATAATGC | 1.02
19 | CTTGGTGCAT | 1.07
20 | CTTACAGGTG | 1.79
21 | TATGAGTAAA | 1
22 | GACTTTCGCC | 1.14
23 | ACGAAATAG | 0.99
24 | CCTGTTCAGG | 1.07
25 | AGACGGAGTC | 1.02
26 | TTTGACGGAG | 0.973

Row | Sequence | switch fluorescence ratio
27 | ATAACCAGA | 1.01
28 | GCCGGGTGGA | 0.979
29 | GTAAATTGG | 0.981
30 | TAGTCCGAGT | 1.01
31 | CGCGATAGGG | 1.25
32 | CGATCTTTTG | 0.954
33 | CCCCTCTG | 1.08
34 | AGGAGCACGA | 0.992
35 | ATTCGATCG | 0.964
36 | ACTGGGTCTG | 0.942
37 | AGTCTCATTA | 1.02
38 | TATGTCACGC | 1.06
39 | TGAGAACACT | 1.02
40 | GGAAACGCAT | 1.35
41 | TGACTTGGGA | 1.03
42 | GAAGGTCTGC | 0.996
43 | TAGATGGATT | 0.984
44 | ACTCAATGAC | 1.37
45 | ACTTGACGCT | 1.07
46 | ATCCAACGTC | 1.07
47 | AGGCAGAGGA | 1.02
48 | AAAACGGATC | 0.997
49 | CTCTGGTTCG | 0.989
50 | ACAATGTGGC | 1.04
51 | TACCAACAAT | 1.09
52 | ATCTTACACC | 1.13

Row | Sequence | switch fluorescence ratio
53 | ATTCCATGAG | 1.01
54 | ACAGGGACCC | 1
55 | GGATCATTCA | 1.03
56 | AGGTATATGT | 1.01
57 | CAAAAGTCTG | 0.975
58 | ATGATAAGAT | 1.03
59 | GCCACCTCA | 1.02
60 | ACAACCGCAA | 1.04
61 | ATGTTCTTGC | 0.96
62 | TGTGCGTGCG | 0.978
63 | ACGGTCAGAT | 1.04
64 | TCGAAGTCTT | 1.05
65 | TGACGCTGAG | 1.03
66 | ACACCAGGT | 4.57
67 | AGTAGTATGT | 0.992
68 | TGTGACCTTT | 0.995
69 | TTCAGGATTC | 0.964
70 | TCCTCGATTG | 1.08
71 | CGATCGGCGC | 1.04
72 | CTGAGGTTCT | 1.05
73 | TGAATAATAA | 0.956
74 | GGGAGCATA | 1.04
75 | AAGGTGTGA | 1.01
76 | TGACATAC | 1.35
77 | CTAGGCGGTG | 0.927
78 | CGCCACCAGT | 1.71

Row | Sequence | switch fluorescence ratio
79 | GCTGGAGTCG | 0.997
80 | ATCATGGGGC | 0.935
81 | TGTGAGAATG | 1
82 | GATGGATAGA | 1.03
83 | TTTGTAAACT | 0.949
84 | ACCATGATTG | 1.02
85 | AGGCATAAAA | 0.992
86 | AGAAGGACAG | 0.983
87 | TTGGGCAGAT | 1.09
88 | GCATAAATCG | 0.999
89 | TGCGATCATC | 1.02
90 | GCCATGAAAA | 0.951
91 | TAGCTTCGTT | 1.12
92 | TTTCGGTGGT | 0.891
93 | TTTGCGCCTA | 0.996
94 | TTCCATTAAG | 0.985
95 | TGTTGCGTAA | 0.996
96 | ATTTATCTCT | 0.98
97 | TACGGGTCT | 1.06
98 | GACGGATAAG | 0.977
99 | GGTTTGAGAC | 0.996
100 | CCTTCAAC | 1.21
101 | AGCTAGCATA | 0.991
102 | CACAGGAATG | 1.02
103 | CCAAAATGCT | 1.02
104 | AATTACCGGA | 0.989

Row | Sequence | switch fluorescence ratio
105 | GCTCAGTCTA | 0.99
106 | TATGTGGCCT | 1.04
107 | AGTATGTCCC | 0.976
108 | CCGTGCACCC | 1.79
109 | GCGGAAGCGT | 1.02
110 | ACGGATCATC | 1.01
111 | TATTGGACCT | 1.29
112 | CGAGGGCGT | 1.03
113 | TCCCTACTCA | 1.09
114 | ATAATAGTAG | 1.04
115 | AGATAAGCGG | 1.02
116 | TGCGGTTGG | 1.01
117 | TTCAAAGCGG | 1.04
118 | TAGAAGAGGC | 0.955
119 | GATGACGGG | 1.03
120 | TGTTGGCGCC | 1.09
121 | TTCTCCATCA | 1.01
122 | TGTTTAACGC | 0.986
123 | TTCGAACT | 0.928
124 | CGGGGTCGT | 1.03
125 | GTTGTTTTGG | 1.01
126 | CAGGTTTCCA | 1.01
127 | GTCGTGCAAC | 1.05
128 | CGCGTCTCGA | 1.03
129 | AGTGCCAGTC | 1.04
130 | TAACTTGTAA | 1.01

Row | Sequence | switch fluorescence ratio
131 | GGGTGGGAAG | 1.01
132 | TGCGGCTGAT | 0.974
133 | AATCGCTTAC | 4.19
134 | TTTTTCTCAA | 1.04
135 | AGTTACATGA | 1.01
136 | CTAATGTGGG | 0.951
137 | TTTAGAAGAG | 1.03
138 | AAGCTTGCGT | 1
139 | GTTGATGATC | 0.971
140 | ACGGAACCG | 1.1
141 | CATCCATACA | 1.1
142 | AAGAAGAAAC | 0.901
143 | GTATCATAGC | 0.992
144 | AGTAAAAACT | 1.03
145 | TAACATACGA | 1.25
146 | TCGTTGACTA | 1.01
147 | TGGGTGCGTA | 0.945
148 | TTGTTTGGCG | 0.988
149 | GCTACAAGAA | 1.04
150 | TTCGGAGACA | 0.984
151 | TGCAGAGATC | 0.995
152 | ACTTAACTGT | 1.15
153 | GCGGCGGCAT | 1.02
154 | ATTTGTTGC | 1.01
155 | AGTGAATTTC | 0.96
156 | AGAAGGTTTT | 0.957

Row | Sequence | switch fluorescence ratio
157 | TGGTGAGGTT | 1.01
158 | TGTAAGGCTT | 0.967
159 | TAGGACCATA | 1
160 | CCTCTCTACA | 1.22
161 | CGGGGCATTT | 0.962
162 | TGCATTACGA | 3.4
163 | TCTTCCCGCT | 1.89
164 | TCCTCTAATG | 1.51
165 | CTGATATGCA | 0.982
166 | GTGGATCAGT | 1.03
167 | CGTCTTAGGC | 1.12
168 | CTAAACTGGG | 1.08
169 | TCTGTTGAA | 0.996
170 | GTGCTGAA | 0.948
171 | AGAGGGCTT | 0.981
172 | CTGAGTAGGT | 0.98
173 | GAGACACAGA | 1.1
174 | TATCACGCG | 0.987
175 | TCGGGAGTAA | 1.44
176 | TCCTCTTCAG | 1
177 | GGGTAGTACC | 1.02
178 | TGCTTGCCTA | 1.04
179 | ACGCCCGGGC | 1.01
180 | TTAGAAATCA | 1
181 | TTTACAGAAT | 1.02
182 | GGCGCGGTCA | 0.962

Row | Sequence | switch fluorescence ratio
183 | AGAGTGTCAA | 0.972
184 | GCCCTTGTGC | 0.884
185 | GATGATCAGC | 0.964
186 | TAGACCGCAT | 1.71
187 | TGGACCAAAT | 0.984
188 | GTCTGAACGC | 1.2
189 | TTTTGTGATC | 0.954
190 | GCTCCTCGCA | 1.63
191 | AGTACTTCGC | 1.12
192 | TAGGTTAACA | 1.04
193 | ATTAATGCCT | 1.08
194 | GCTTCATGTT | 0.959
195 | AGTTTCAATG | 1.01
196 | AATTTGAAGG | 1.01
197 | CTTATTAGAG | 1.07
198 | TTTGTCTTAT | 0.974
199 | AATCCGCTTC | 2.67
200 | CGGGCCTGGC | 0.892
201 | AGCTTAGTTA | 0.969
